# In all, about 33,000 sequences were measured (“E-score (-0.5 to 0.5)”: median about -0.012, highest 2% from about 0.29 on). This is one part of the list.
# Target: T1, Ybr033w (UniProt P38073)
# T1 sequence: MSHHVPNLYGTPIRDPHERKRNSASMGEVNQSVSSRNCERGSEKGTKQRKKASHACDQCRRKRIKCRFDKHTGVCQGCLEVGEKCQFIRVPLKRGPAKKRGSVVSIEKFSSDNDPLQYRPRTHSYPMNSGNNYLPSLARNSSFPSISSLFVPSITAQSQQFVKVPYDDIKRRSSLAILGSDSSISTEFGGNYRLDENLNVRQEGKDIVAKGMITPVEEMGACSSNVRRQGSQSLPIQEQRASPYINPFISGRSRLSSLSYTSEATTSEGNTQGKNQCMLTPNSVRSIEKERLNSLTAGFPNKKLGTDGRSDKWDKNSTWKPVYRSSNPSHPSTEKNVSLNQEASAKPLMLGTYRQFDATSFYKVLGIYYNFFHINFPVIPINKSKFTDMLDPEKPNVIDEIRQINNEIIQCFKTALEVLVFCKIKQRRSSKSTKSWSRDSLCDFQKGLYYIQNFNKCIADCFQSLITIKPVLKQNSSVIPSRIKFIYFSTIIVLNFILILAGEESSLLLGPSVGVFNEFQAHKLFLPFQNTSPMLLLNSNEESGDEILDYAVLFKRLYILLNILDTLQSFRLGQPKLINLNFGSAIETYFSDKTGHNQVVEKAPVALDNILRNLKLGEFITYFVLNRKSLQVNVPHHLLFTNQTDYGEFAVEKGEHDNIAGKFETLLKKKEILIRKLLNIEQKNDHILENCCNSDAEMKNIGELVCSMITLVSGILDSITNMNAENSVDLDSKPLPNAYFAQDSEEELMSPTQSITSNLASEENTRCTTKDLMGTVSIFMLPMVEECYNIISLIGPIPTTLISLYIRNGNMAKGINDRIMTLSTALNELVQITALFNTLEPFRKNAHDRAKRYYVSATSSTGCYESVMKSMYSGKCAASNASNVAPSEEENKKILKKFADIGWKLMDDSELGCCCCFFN
# Experiment: PBM E-score (8-mer binding enrichment) (E-score (-0.5 to 0.5)); higher = stronger / more preferred TF binding; most listed sequences are background and not binding sites
# Conditions: protein concentration: 200 nM; construct: GST-full length
# Experimental: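 Universal 'all 10-mer' protein binding microarrays (Agilent AMADID 015681) probed with GST-tagged S. cerevisiae TFs (full-length or DBD) made by in vitro transcription/translation (PURExpress), about 100-200 nM. Bound TF was detected with fluorescent anti-GST. Each ungapped 8-mer (which stands for itself and its reverse complement) is scored by the PBM enrichment score (E-score), a modified Wilcoxon-Mann-Whitney statistic from -0.5 to +0.5, computed with the Universal PBM Analysis Suite. Scale: above 0.35 generally sequence-specific binding.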
row,Sequence,PBM E-score
1,GTGACTGA,0.0134
2,GTAAACGA,0.115
3,AAGGCGCA,-0.0162
4,AAAAGTAA,0.314
5,ACTGCCTA,-0.0707
6,CCACCTCG,-0.205
7,ACATCCAG,0.0405
8,AGGTGAAT,0.0888
9,CGATAGCC,-0.103
10,CCGAAAGG,-0.16
11,CACGACGG,-0.0326
12,CCTGTTCG,-0.157
13,AACTTCAT,0.205
14,GGGATTCA,-0.16
15,TGTATGAA,-0.124
16,CTCGTATA,-0.0786
17,GCTATCCC,-0.201
18,ACGCTTTG,0.0578
19,AGCGTAAG,-0.107
20,AAGCAAAT,0.0946
21,ATCACGAG,-0.187
22,AGGACCAG,-0.155

row,Sequence,PBM E-score
1,CAGCCTAG,0.0256
2,ATCGTTGC,-0.281
3,ATTGAACG,0.159
4,CTGGTAAA,0.00474
5,ACTGGCGC,-0.0583
6,CCCTTCTA,-0.292
7,CGCGGACG,-0.141
8,AGCCGCCT,-0.18
9,GGCACAGA,-0.163
10,ACTCTGAT,0.0103
11,CGCCAACG,-0.0928
12,ACAAGATA,0.153
13,AGCCCCCG,-0.467
14,GGACGGAA,0.0838
15,GGTTGCCA,-0.0111
16,GCAGCGAC,-0.299
17,CTAAGCGA,-0.179
18,ATGACTAC,-0.122
19,GCTCCTAC,-0.124
20,GCGCAGCA,-0.176
21,CCAGTAAG,-0.0776
22,ACGTCCCA,-0.25

row,Sequence,PBM E-score
1,AGCTAGGC,-0.194
2,CATGTCGC,-0.06
3,GGTACGGA,-0.106
4,AGGGTAGA,-0.177
5,ACTGCGAA,-0.0623
6,CCACTGTC,-0.2
7,AGTTAAAG,0.0526
8,GCACACTA,0.0297
9,TGCTAGCA,-0.0081
10,CGCTTCTA,0.0979
11,CCCGAAGG,-0.163
12,CCGCCTTC,-0.153
13,GCGTTTAA,0.117
14,AAGTGCGA,-0.169
15,CGCGCGAA,-0.068
16,CCAGGAAA,0.237
17,AGAACGCG,-0.0831
18,ACCATCTG,-0.122
19,CCTTCCTA,-0.182
20,ACATTCCG,-0.0433
21,GACGGCGA,-0.248
22,AACGAAGT,0.106

row,Sequence,PBM E-score
1,AAGCGAAA,0.0229
2,ACCGTGGC,-0.268
3,AATCAAAG,0.0864
4,ATGATGAC,0.0631
5,CAGGGCTA,-0.156
6,CTCAGCAA,0.104
7,AACACATG,0.0413
8,AATTAAAG,0.217
9,AGTCTATA,0.0345
10,GAACAACA,0.196
11,AGAAGACG,0.123
12,CGGGCAGA,-0.0691
13,CACTCAAA,0.0703
14,CTTTCTAC,0.00625
15,CAGTGCGG,-0.137
16,TCATTACA,0.258
17,CTAAACTC,0.0381
18,AGATTACT,0.202
19,ATTACATA,0.228
20,GCGGTGTA,-0.0247

# — the supplement of paper PMC3334620
